Experimental data: patent US7592316B2, “Peptides as NS3-serine protease inhibitors of hepatitis C virus” (Schering Corporation, priority 2000, dated 2009)

biological target: HCV NS3/NS4A protease (strain 1a) (Hepatitis C virus genotype 1a, UniProt P27958); experiment: biochemical; details: Table 6; HCV NS3/NS4A protease, 30° C., pH 6.5; read-out: Ki*

Row | SMILES | Ki [nM]
1 | C=CCCC(NC(=O)[C@@H]1[C@@H]2[C@H](CN1C(=O)[C@@H](NC(=O)NC(C)(C)C)C1CCCCC1)C2(C)C)C(=O)C(=O)NCCC(=O)CC(C)C (stereo partly drawn) | 1 to 100
2 | C=CCCC(NC(=O)[C@@H]1[C@@H]2[C@H](CN1C(=O)[C@@H](NC(=O)OC(C)(C)C)C1CCCCC1)C2(C)C)C(=O)C(=O)NCCC(=O)N(C)Cc1ccccc1 (stereo partly drawn) | 101 to 1000
3 | C=CCCNC(=O)C(=O)C(CCCC)NC(=O)[C@@H]1[C@@H]2[C@H](CN1C(=O)[C@@H](NC(=O)NC(C)(C)C)C(C)(C)C)C2(C)C (stereo partly drawn) | 101 to 1000
4 | CCCC(NC(=O)[C@@H]1[C@@H]2[C@H](CN1C(=O)[C@@H](NC(=O)OC(C)(C)C)C1CCCCC1)C2(C)C)C(=O)C(=O)NCC(O)C(=O)OC(C)(C)C (stereo partly drawn) | 1 to 100
5 | CC(C)(C)NC(=O)N[C@H](C(=O)N1C[C@H]2[C@@H]([C@H]1C(=O)NC(CC1CC1)C(=O)C(=O)NCC(=O)NCc1ccccc1)C2(Cl)Cl)C1CCCCC1 (stereo partly drawn) | 1 to 100
6 | CC(=O)O[C@H](C(=O)N[C@H](C(=O)N1C[C@H]2[C@@H]([C@H]1C(=O)NC(CC1CCC1)C(=O)C(N)=O)C2(C)C)C1CCCCC1)c1ccccc1 (stereo partly drawn) | 1 to 100
7 | CN(C)C(=O)[C@@H](NC(=O)CNC(=O)C(=O)[C@@H](CC1CC1)NC(=O)[C@@H]1[C@H]2CC(C)(C)O[C@H]2CN1C(=O)[C@@H](NC(=O)OC(C)(C)C)C1CCCCC1)c1cccs1 | 1 to 100
8 | CN(C)C(=O)[C@@H](NC(=O)CNC(=O)C(=O)[C@H](CC1CC1)NC(=O)[C@@H]1[C@H]2CC(C)(C)O[C@H]2CN1C(=O)[C@@H](NC(=O)OC(C)(C)C)C1CCCCC1)c1cccs1 | 1 to 100
9 | CC(C)(C)NC(=O)N[C@H](C(=O)N1C[C@H]2[C@@H]([C@H]1C(=O)NC(CC1CCC1)C(=O)C(N)=O)C2(C)C)C1(C)CCCCC1 (stereo partly drawn) | 1 to 100
10 | CC(C)(C)OC(=O)N[C@H](C(=O)N1C[C@H]2[C@@H]([C@H]1C(=O)NC(CC1CCC1)C(=O)C(N)=O)C2(Cl)Cl)C1Cc2ccccc2C1 (stereo partly drawn) | 1 to 100
11 | C#CCCC(NC(=O)[C@@H]1[C@@H]2[C@H](CN1C(=O)[C@@H](NC(=O)NC(C)(C)C)C(C)(C)C)C2(C)C)C(=O)C(=O)NCCC(=O)OC(C)(C)C (stereo partly drawn) | 1 to 100
12 | C[C@@H](NC(=O)N[C@H](C(=O)N1C[C@H]2[C@@H]([C@H]1C(=O)NC(CC1CCC1)C(=O)C(N)=O)C2(C)C)C(C)(C)C)c1ccccc1 (stereo partly drawn) | 101 to 1000
13 | C[C@H](NC(=O)N[C@H](C(=O)N1C[C@H]2[C@@H]([C@H]1C(=O)NC(CC1CCC1)C(=O)C(N)=O)C2(C)C)C(C)(C)C)c1ccccc1 (stereo partly drawn) | 1 to 100
14 | CC(C)(C)NC(=O)N[C@H](C(=O)N1C[C@H]2[C@@H]([C@H]1C(=O)NC(CC1CCC1)C(=O)C(N)=O)C2(Cl)Cl)C1Cc2ccccc2C1 (stereo partly drawn) | 1 to 100
15 | CN(C)C(=O)CCNC(=O)CNC(=O)C(=O)C(CC1CCC1)NC(=O)[C@@H]1[C@@H]2[C@H](CN1C(=O)[C@@H](NC(=O)OC(C)(C)C)C1CCCCC1)C2(C)C (stereo partly drawn) | 1 to 100
16 | CC(C)(C)OC(=O)N[C@H](C(=O)N1C[C@H]2[C@@H]([C@H]1C(=O)NC(CC1CCC1)C(=O)C(N)=O)C2(C)C)C(C)(C)O (stereo partly drawn) | 101 to 1000
17 | CC(C)(C)NC(=O)N[C@H](C(=O)N1C[C@H]2[C@@H]([C@H]1C(=O)NC(CC1CCC1)C(=O)C(N)=O)C2(C)C)C(C)(C)O (stereo partly drawn) | 101 to 1000
18 | CC(C)(C#N)OC(=O)N[C@H](C(=O)N1C[C@H]2[C@@H]([C@H]1C(=O)NC(CC1CCC1)C(=O)C(N)=O)C2(Cl)Cl)C1CCCCC1 (stereo partly drawn) | 101 to 1000
19 | CC(C)(C#N)OC(=O)N[C@H](C(=O)N1C[C@H]2[C@@H]([C@H]1C(=O)NC(CC1CCC1)C(=O)C(N)=O)C2(Cl)Cl)C(C)(C)C (stereo partly drawn) | 101 to 1000

Row | SMILES | Ki [nM]
20 | CCCC(NC(=O)[C@@H]1[C@@H]2[C@H](CN1C(=O)[C@@H](NC(=O)OC(C)(C)C)C(C)(C)C)C2(C)C)C(=O)C(=O)NCC(O)C(=O)OC(C)(C)C (stereo partly drawn) | 101 to 1000
21 | COC(=O)C(C)(C)OC(=O)N[C@H](C(=O)N1C[C@H]2[C@@H]([C@H]1C(=O)NC(CC1CCC1)C(=O)C(N)=O)C2(Cl)Cl)C1CCCCC1 (stereo partly drawn) | 101 to 1000
22 | COC(=O)C(C)(C)OC(=O)N[C@H](C(=O)N1C[C@H]2[C@@H]([C@H]1C(=O)NC(CC1CCC1)C(=O)C(N)=O)C2(Cl)Cl)C(C)(C)C (stereo partly drawn) | 101 to 1000
23 | CC(C)(C#N)OC(=O)N[C@H](C(=O)N1C[C@H]2[C@@H]([C@H]1C(=O)NC(CC1CC1)C(=O)C(N)=O)C2(Cl)Cl)C(C)(C)C (stereo partly drawn) | 1 to 100
24 | COC(=O)C(C)(C)OC(=O)N[C@H](C(=O)N1C[C@H]2[C@@H]([C@H]1C(=O)NC(CC1CC1)C(=O)C(N)=O)C2(Cl)Cl)C(C)(C)C (stereo partly drawn) | 1 to 100
25 | CC(C)(C)OC(=O)N[C@H](C(=O)N1C[C@H]2[C@@H]([C@H]1C(=O)NC(CC1CCC1)C(=O)C(N)=O)C21CCCC1)C(C)(C)C (stereo partly drawn) | 101 to 1000
26 | CN(C)C(=O)[C@@H](NC(=O)CNC(=O)C(=O)C(CC1CC1)NC(=O)[C@@H]1[C@H]2CC(C)(C)O[C@H]2CN1C(=O)[C@@H](NC(=O)OC(C)(C)C(F)(F)F)C1CCCCC1)c1ccccc1 (stereo partly drawn) | 1 to 100
27 | CN(C)C(=O)[C@@H](NC(=O)CNC(=O)C(=O)C(CC1CC1)NC(=O)[C@@H]1[C@H]2CC(C)(C)O[C@H]2CN1C(=O)[C@@H](NC(=O)NC(C)(C)C)C1CCCCC1)c1ccccc1 (stereo partly drawn) | 1 to 100
28 | CC(C)(C)NC(=O)N[C@H](C(=O)N1C[C@H]2[C@@H]([C@H]1C(=O)NC(C(=O)C(=O)NCC(=O)NCc1ccccc1)C1CCC1)C2(C)C)C(C)(C)C (stereo partly drawn) | 1 to 100
29 | CC1(NC(=O)N[C@H](C(=O)N2C[C@H]3[C@@H]([C@H]2C(=O)NC(CC2CC2)C(=O)C(N)=O)C3(C)C)C(C)(C)C)CCCCC1 (stereo partly drawn) | 1 to 100
30 | CC1(OC(=O)N[C@H](C(=O)N2C[C@H]3[C@@H]([C@H]2C(=O)NC(CC2CC2)C(=O)C(N)=O)C3(C)C)C(C)(C)C)CCCCC1 (stereo partly drawn) | 1 to 100
31 | CC(=O)OCC(C)(COC(C)=O)NC(=O)N[C@H](C(=O)N1C[C@H]2[C@@H]([C@H]1C(=O)NC(CC1CCC1)C(=O)C(N)=O)C2(Cl)Cl)C(C)(C)C (stereo partly drawn) | 101 to 1000
32 | CC(=O)OCC(C)(C)NC(=O)N[C@H](C(=O)N1C[C@H]2[C@@H]([C@H]1C(=O)NC(CC1CCC1)C(=O)C(N)=O)C2(Cl)Cl)C1CCCCC1 (stereo partly drawn) | 101 to 1000
33 | CC1(NC(=O)N[C@H](C(=O)N2C[C@H]3[C@@H]([C@H]2C(=O)NC(CC2CCC2)C(=O)C(N)=O)C3(C)C)C(C)(C)C)CCCCC1 (stereo partly drawn) | 1 to 100
34 | CCCC(NC(=O)[C@@H]1[C@@H]2[C@H](CN1C(=O)[C@@H](NC(=O)OC(C)(C)C(F)(F)F)C(C)(C)C)C2(C)C)C(=O)C(=O)NCC(=O)NCc1ccccc1 (stereo partly drawn) | 1 to 100
35 | CCCC(NC(=O)[C@@H]1[C@H]2[C@@H](CN1C(=O)[C@@H](NC(=O)NC(C)(C)C)C(C)(C)C)C2(C)C)C(=O)C(=O)NCC(=O)NCc1ccccc1 (stereo partly drawn) | 1 to 100
36 | CC(=O)OCC(C)(C)NC(=O)N[C@H](C(=O)N1C[C@H]2[C@@H]([C@H]1C(=O)NC(CC1CCC1)C(=O)C(N)=O)C2(Cl)Cl)C(C)(C)C (stereo partly drawn) | 101 to 1000
37 | CC(CO)(CO)NC(=O)N[C@H](C(=O)N1C[C@H]2[C@@H]([C@H]1C(=O)NC(CC1CCC1)C(=O)C(N)=O)C2(Cl)Cl)C(C)(C)C (stereo partly drawn) | 101 to 1000
38 | CC(C)(CO)NC(=O)N[C@H](C(=O)N1C[C@H]2[C@@H]([C@H]1C(=O)NC(CC1CCC1)C(=O)C(N)=O)C2(Cl)Cl)C1CCCCC1 (stereo partly drawn) | 101 to 1000

Row | SMILES | Ki [nM]
39 | CN(C)C(=O)[C@@H](NC(=O)CNC(=O)C(=O)C(CC1CC1)NC(=O)[C@@H]1[C@H]2CC(C)(C)O[C@H]2CN1C(=O)[C@@H](NC(=O)OC(C)(C)C)C1CCCCC1)c1ccc(Br)cc1 (stereo partly drawn) | 1 to 100
40 | COC(=O)C(C)(C)NC(=O)N[C@H](C(=O)N1C[C@H]2[C@@H]([C@H]1C(=O)NC(CC1CCC1)C(=O)C(N)=O)C2(Cl)Cl)C1CCCCC1 (stereo partly drawn) | 1 to 100
41 | COC(=O)C(C)(C)NC(=O)N[C@H](C(=O)N1C[C@H]2[C@@H]([C@H]1C(=O)NC(CC1CCC1)C(=O)C(N)=O)C2(Cl)Cl)C(C)(C)C (stereo partly drawn) | 1 to 100
42 | CC(C)(C)[C@H](NC(=O)OC(CF)CF)C(=O)N1C[C@H]2[C@@H]([C@H]1C(=O)NC(CC1CCC1)C(=O)C(N)=O)C2(C)C (stereo partly drawn) | 101 to 1000
43 | CC1(C)[C@@H]2[C@@H](C(=O)NC(CC3CC3)C(=O)C(N)=O)N(C(=O)[C@@H](NC(=O)OC(CF)CF)C3CCCCC3)C[C@@H]21 (stereo partly drawn) | 1 to 100
44 | CC1(C)[C@@H]2[C@@H](C(=O)NC(CC3CC3)C(=O)C(N)=O)N(C(=O)[C@@H](NC(=O)OC(C)(C)C(F)(F)F)C3Cc4ccccc4C3)C[C@@H]21 (stereo partly drawn) | 1 to 100
45 | CC(NC(=O)N[C@H](C(=O)N1C[C@H]2[C@@H]([C@H]1C(=O)NC(CC1CCC1)C(=O)C(N)=O)C2(Cl)Cl)C(C)(C)C)C(C)(C)C (stereo partly drawn) | 1 to 100
46 | COC(=O)C1(NC(=O)N[C@H](C(=O)N2C[C@H]3[C@@H]([C@H]2C(=O)NC(CC2CCC2)C(=O)C(N)=O)C3(Cl)Cl)C2CCCCC2)CCCC1 (stereo partly drawn) | 101 to 1000
47 | CC1C[C@H]2CN(C(=O)[C@@H](NC(=O)OC(C)(C)C)C3CCCCC3)[C@H](C(=O)N[C@H](CC3CCC3)C(=O)C(=O)NCC(=O)N[C@H](C(=O)N(C)C)c3ccccc3)[C@H]2C1 (stereo partly drawn) | 1 to 100
48 | CC1C[C@H]2CN(C(=O)[C@@H](NC(=O)OC(C)(C)C)C3CCCCC3)[C@H](C(=O)N[C@H](CC3CCC3)C(=O)C(N)=O)[C@H]2C1 (stereo partly drawn) | 101 to 1000
49 | COC(=O)C1(NC(=O)N[C@H](C(=O)N2C[C@H]3[C@@H]([C@H]2C(=O)NC(CC2CCC2)C(=O)C(N)=O)C3(Cl)Cl)C(C)(C)C)CCCC1 (stereo partly drawn) | 101 to 1000
50 | COC(=O)C1(NC(=O)N[C@H](C(=O)N2C[C@H]3[C@@H]([C@H]2C(=O)NC(CC2CC2)C(=O)C(N)=O)C3(Cl)Cl)C(C)(C)C)CCCC1 (stereo partly drawn) | 101 to 1000
51 | CC(=O)OCC(NC(=O)N[C@H](C(=O)N1C[C@H]2[C@@H]([C@H]1C(=O)NC(CC1CCC1)C(=O)C(N)=O)C2(Cl)Cl)C(C)(C)C)C(C)(C)C (stereo partly drawn) | 1 to 100
52 | CC(NC(=O)N[C@H](C(=O)N1C[C@H]2[C@@H]([C@H]1C(=O)NC(CC1CC1)C(=O)C(N)=O)C2(C)C)C(C)(C)C)C(F)(F)F (stereo partly drawn) | 101 to 1000
53 | CC(NC(=O)N[C@H](C(=O)N1C[C@H]2[C@@H]([C@H]1C(=O)NC(CC1CC1)C(=O)C(N)=O)C2(C)C)C1CCCCC1)C(F)(F)F (stereo partly drawn) | 101 to 1000
54 | CC(C)(C)NC(=O)N[C@H](C(=O)N1C[C@H]2[C@@H]([C@H]1C(=O)N[C@@H](CC1CCC1)C(=O)C(N)=O)C2(C)C)C(C)(C)C | 1 to 100
55 | CC(C)(C)NC(=O)N[C@H](C(=O)N1C[C@H]2[C@@H]([C@H]1C(=O)N[C@H](CC1CCC1)C(=O)C(N)=O)C2(C)C)C(C)(C)C | 101 to 1000
56 | CC(C)(C)OC(=O)N[C@H](C(=O)N1C[C@H]2[C@@H]([C@H]1C(=O)NC(CCC(F)(F)F)C(=O)C(=O)O)C2(C)C)C1CCCCC1 (stereo partly drawn) | 1 to 100
57 | Cc1ccc(S(=O)(=O)CNC(=O)C(=O)C(CC2CCC2)NC(=O)[C@@H]2[C@@H]3[C@H](CN2C(=O)[C@@H](NC(=O)NC(C)(C)C)C(C)(C)C)C3(C)C)cc1 (stereo partly drawn) | 101 to 1000
